35 molecules from the supplement of paper PMC8007513 can be followed below.

This experiment deals with Trichoderma virens ATCC 9645. The experiment is described as follows: growth yield (OD600) relative to untreated control; higher = less growth inhibition. To be noted: compound concentration: 100 uM. The procedure, abridged: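 A biocide at 200 ng ml^−1 was co-applied to some wells, and library compounds were present in all test wells at 100 μM final. The wells held 100 μl of Trichoderma virens ATCC 9645 spores at 15,000 spores ml^−1 in potato dextrose broth, grown at 30 °C in 96-well plates, with OD600 read at 40 h and 72 h. Results are relative growth against the control without either agent, averaged across duplicate screens.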

Where a name gives a salt, the structure may show the parent alone. ± gives the standard error. About 75 (6%) of roughly 1,300 compounds showed an effect of 50% or more. The list shows a part of the results.

`Cn1c(=O)c2c(ncn2CC(O)CO)n(C)c1=O` (stereo not given) [Diprophylline] gave a growth yield (40 h) of 102 ± 4% and a growth yield (72 h) of 101 ± 2.8%.
The matching figures for `NC(=O)c1cccnc1` [Nicotinamide]: 105 ± 4.3% and 101 ± 4%.
The matching figures for `CC(C)(Oc1ccc(C2CC2(Cl)Cl)cc1)C(=O)O` (stereo not given) [Ciprofibrate]: 95.5 ± 2.4% and 85.58 ± 0.84%.
Consider `CC1=C(C(=O)O)N2C(=O)[C@@H](NC(=O)[C@H](N)c3ccc(O)cc3)[C@H]2SC1` [Cefadroxil], for which the growth yield runs as follows: (40 h) 104 ± 8.9%; (72 h) 106 ± 9.1%.
For `C=CCN1CCCC1CNC(=O)c1cc2nn[nH]c2cc1OC` (stereo not given) [Alizapride hydrochloride], the growth yield by setting is: (40 h) 108 ± 4.3%; (72 h) 109 ± 2.7%.
The matching figures for `CCN(CCCc1ccccc1)CCCc1ccccc1` [Alverine citrate salt]: 97.85 ± 0.95% and 98.2 ± 2.1%.
The matching figures for `O=P(O)(O)C(O)(Cc1cccnc1)P(=O)(O)O` [Risedronic acid monohydrate]: 102.9 ± 0.95% and 101.2 ± 0.32%.
The like results for `CCN(CC)C(=O)N1CCN(C)CC1` [Diethylcarbamazine citrate] were, in that order, 101 ± 2.5% and 104.7 ± 0.63%.
`C=CC[N@@+]12CC[C@@]34c5ccccc5N5/C=C6/[C@H]7C[C@H]8[C@@]9(CC[N@@+]8(CC=C)C/C7=C/CO)c7ccccc7N(/C=C(/[C@@H](C[C@@H]31)/C(=C\CO)C2)[C@H]54)[C@@H]69` [Alcuronium chloride]: the growth yield was determined as 66.1 ± 7.6% (40 h) and 65.8 ± 5.3% (72 h).
As for `CCCC(C(=O)OCCN(CC)CC)(c1ccccc1)c1ccccc1` [Proadifen hydrochloride], the growth yield (40 h) stood at 101 ± 2.5% and the growth yield (72 h) was determined as 107 ± 3.2%.
Consider `Clc1ccc(COC(Cn2ccnc2)c2ccc(Cl)cc2Cl)cc1` (stereo not given) [Econazole nitrate], for which the growth yield by setting is: (40 h) 2.22 ± 0.64%; (72 h) 1.78 ± 0.52%.
The matching figures for `CO/N=C1\CN(c2nc3c(cc2F)c(=O)c(C(=O)O)cn3C2CC2)CC1CN` (stereo not given) [Gemifloxacin mesylate]: 101% and 101.7 ± 0.84%.
The like results for `Clc1ccccc1C(c1ccccc1)(c1ccccc1)n1ccnc1` [Clotrimazole] were, in that order, 2.38 ± 1.8% and 1.89 ± 1.1%.
The like results for `O=C(O)c1cc(=O)c2c(OCC(O)COc3cccc4oc(C(=O)O)cc(=O)c34)cccc2o1` [Cromolyn disodium salt] were, in that order, 97.8 ± 1.3% and 96.28 ± 0.21%.
In turn, `NC[C@H]1CC[C@H](C(=O)O)CC1` [Tranexamic acid] returned a growth yield (40 h) of 99.75 ± 0.64% and a growth yield (72 h) of 102.2 ± 0.73%.
Consider `C=CCc1ccccc1OCC(O)CNC(C)C` (stereo not given) [Alprenolol hydrochloride], for which the growth yield (40 h) was 104 ± 0.79% and the growth yield (72 h) amounted to 101.6 ± 0.73%.
The like results for `CC(=O)OC(C)C[N+](C)(C)C` (stereo not given) [Methacholine chloride] were, in that order, 104 ± 5.1% and 97.64 ± 0.73%.
The like results for `CCCCOc1ccc(CC(=O)NO)cc1` [Bufexamac] were, in that order, 94.2 ± 1.1% and 88.1 ± 2.9%.
The matching figures for `Cc1ccc(O)c([C@H](CCN(C(C)C)C(C)C)c2ccccc2)c1` [Tolterodine tartrate]: 96.7 ± 2.7% and 97.95 ± 0.42%.
With `CCSc1ccc2c(c1)N(CCCN1CCN(C)CC1)c1ccccc1S2` [Thiethylperazine dimalate], the growth yield came to 3.02 ± 0.16% (40 h) and 2.73 ± 0.42% (72 h).
The like results for `Cc1c(O)cccc1C(=O)N[C@@H](CSc1ccccc1)[C@H](O)CN1C[C@H]2CCCC[C@H]2C[C@H]1C(=O)NC(C)(C)C` [Nelfinavir mesylate] were, in that order, 113.9 ± 0.16% and 111 ± 1.4%.
The like results for `CN(C)CCC(c1ccccc1)c1ccccn1` (stereo not given) [Pheniramine maleate] were, in that order, 101 ± 6.5% and 98.6 ± 3.1%.
On to `Cc1c(F)c(N2CCNC(C)C2)cc2c1c(=O)c(C(=O)O)cn2C1CC1` (stereo not given) [Grepafloxacin], for which the growth yield amounted to 99.9 ± 1.4% (40 h) and 97.53 ± 0.63% (72 h).
The like results for `N=C(N=C(N)N)N1CCOCC1` [Moroxidine hydrochloride] were, in that order, 106 ± 4.3% and 104 ± 1.9%.
Regarding `CC(=O)OCC(=O)[C@@]12OC3(CCCC3)O[C@@H]1C[C@H]1[C@@H]3CCC4=CC(=O)C=C[C@]4(C)[C@@]3(F)[C@@H](O)C[C@@]12C` [Amcinonide], the growth yield reads like this: (40 h) 97.5 ± 4.1%; (72 h) 98.8 ± 2.5%.
The matching figures for `CCCC(=O)Nc1ccc(OCC(O)CNC(C)C)c(C(C)=O)c1` (stereo not given) [Acebutolol hydrochloride]: 101 ± 7.3% and 98.1 ± 3.9%.
As for `CC(=O)Nc1ccc(OCC(O)CNC(C)C)cc1` (stereo not given) [Practolol], the growth yield was 102.1 ± 0.48% (40 h) and 104.6 ± 0.94% (72 h).
The like results for `CN1[C@@H]2CC[C@H]1C[C@@H](OC(c1ccccc1)c1ccccc1)C2` [Benztropine mesylate] were, in that order, 105 ± 3.6% and 102 ± 1.7%.
The matching figures for `O=C(Nc1ccccc1)OCC(CN1CCCCC1)OC(=O)Nc1ccccc1` (stereo not given) [Diperodon hydrochloride]: 102.1 ± 0.16% and 103.51 ± 0.1%.
The like results for `CCCCC1C(=O)N(c2ccccc2)N(c2ccccc2)C1=O` [Phenylbutazone] were, in that order, 115 ± 7.9% and 110 ± 6.8%.
`COCCCOc1cc(C[C@@H](C[C@H](N)[C@@H](O)C[C@H](C(=O)NCC(C)(C)C(N)=O)C(C)C)C(C)C)ccc1OC` [Aliskiren hemifumarate]: the growth yield by setting is: (40 h) 98.48 ± 0.32%; (72 h) 99.11 ± 0.73%.
As for `CCCCOC(=O)c1ccc(O)cc1` [Butylparaben], the growth yield (40 h) is 46.4 ± 2.2% and the growth yield (72 h) is 49.5 ± 0.84%.
The like results for `CCCc1nc2c(C)cc(-c3nc4ccccc4n3C)cc2n1Cc1ccc(-c2ccccc2C(=O)O)cc1` [Telmisartan] were, in that order, 103 ± 6.5% and 97.4 ± 3.5%.
The matching figures for `CC(=O)/N=c1/sc(S(N)(=O)=O)nn1C` [Methazolamide]: 98.2 ± 2.5% and 97 ± 2.4%.
For `N=C(N)N1CCc2ccccc2C1` [Debrisoquin sulfate], the growth yield by setting is: (40 h) 97.5 ± 1.3%; (72 h) 101.8 ± 0.52%.
